The campaign covered roughly 110,000 compounds. About 230 (0.21%) showed an effect of 50% or more. The list shows a part of the results.
biological target: DPAP1 (Plasmodium falciparum, UniProt Q8IIJ9); assay: primary screen, percent inhibition; read by cleavage of a fluorogenic dipeptide substrate; higher = more effect of the substance; design: species or system P. falciparum D10 trophozoite lysates; single well
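Further: 30 min substrate incubation versus DMSO and 10 µM JCP410 controls.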

Chain of DPAP1 (Q8IIJ9 whole entry, looked up): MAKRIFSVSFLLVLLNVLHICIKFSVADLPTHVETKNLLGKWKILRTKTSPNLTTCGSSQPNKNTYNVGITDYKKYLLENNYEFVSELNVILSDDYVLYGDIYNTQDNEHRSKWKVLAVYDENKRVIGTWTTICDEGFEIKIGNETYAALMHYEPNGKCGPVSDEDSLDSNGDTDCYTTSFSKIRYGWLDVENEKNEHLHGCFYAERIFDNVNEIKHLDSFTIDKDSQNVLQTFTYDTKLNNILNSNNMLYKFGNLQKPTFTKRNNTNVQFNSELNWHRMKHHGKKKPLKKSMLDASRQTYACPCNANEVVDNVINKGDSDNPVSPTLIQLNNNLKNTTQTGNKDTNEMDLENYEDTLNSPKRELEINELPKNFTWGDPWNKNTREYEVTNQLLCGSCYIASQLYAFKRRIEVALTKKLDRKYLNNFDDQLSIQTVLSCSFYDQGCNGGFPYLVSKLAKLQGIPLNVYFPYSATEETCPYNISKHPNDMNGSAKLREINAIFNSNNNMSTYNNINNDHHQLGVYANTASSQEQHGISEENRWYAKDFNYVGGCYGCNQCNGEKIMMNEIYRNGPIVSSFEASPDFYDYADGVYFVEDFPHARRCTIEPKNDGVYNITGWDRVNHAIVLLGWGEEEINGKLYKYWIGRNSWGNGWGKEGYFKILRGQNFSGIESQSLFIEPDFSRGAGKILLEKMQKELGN

Row | Compound | % Inhibition @ 10 uM [%]
1 | COc1cc(C2=NOC(C(=O)Nc3cccnc3Cl)C2)cc(OC)c1OC (stereo not shown) | -2.16
2 | CC(O)c1cccc(NC(=O)c2nn3c(c2Cl)NC(c2cccs2)CC3C(F)(F)F)c1 (stereo not shown) | 1.02
3 | CC1=C(C(=O)Nc2ccc(Br)cn2)C(c2ccc(C)cc2)C2=C(O)CCCC2=N1 (stereo not shown) | -2.8
4 | N#Cc1c2n(c3c(=O)n(Cc4ccccc4Cl)cnc13)CCCC2 | -0.996
5 | COC(=O)c1c(NC(=O)c2cc(F)cc(F)c2)sc2c1CCC2 | 1.43
6 | COC(=O)C1=C(C)N(Cc2ccco2)C(=O)/C1=C\c1ccc2c(c1)OCO2 | 0.131
7 | CCC(Cc1ccccc1)NS(=O)(=O)c1cc(Br)cnc1N (stereo not shown) | 0.655
8 | NS(=O)(=O)c1ccc(CCNc2ncnc3[nH]cnc23)cc1 | 0.221
9 | O=Cc1cccn1-c1sc2c(c1C(=O)O)CCCC2 | -4.11
10 | COc1cc(-c2nnc(SCC(=O)NC3CCCCC3)o2)cc(OC)c1OC | 11
11 | COc1ccc(C(=O)N2CCN(Cc3ccccc3C(F)(F)F)CC2)cc1OC | 0.964
12 | C=Cc1ccc(Cn2c(C(=O)O)c(CNC3CCN(Cc4ccccc4)CC3)c3ccccc32)cc1 | 9.46
13 | CN1CCC(NC(c2ccccc2)c2ccc(Cl)cc2)CC1 (stereo not shown) | 1.57
14 | CCOc1ccc(CNC(=O)c2ccc(CS(=O)Cc3ccc(C)cc3)o2)cc1 (stereo not shown) | -6.67
15 | CCS(=O)(=O)N1CCC2(CC1)OC(=O)C(C)=C2C(=O)N1CCc2ccccc2C1 | 4.39
16 | O=[N+]([O-])c1ccc(CSc2nc3ccccc3s2)cc1 | -0.0369
17 | CCCc1ccc(OCc2ccc(C(=O)N3CCSCC3)o2)cc1 | 2.1
18 | CCc1nn(CC(=O)NCCN2CCOCC2)c(=O)c2cc3sccc3n12 | -3.35
19 | N#C/C(=C\C=C\c1ccccc1)C(=O)NCc1cccnc1 | 10.8
20 | COC(=O)c1cc(S(=O)(=O)N(Cc2ccccc2)C(C)C)c[nH]1 | -6.25
21 | O=C(Nc1cccs1)Nc1cccnc1Cl | -4.71
22 | CC1CCN(C(=O)CSc2nnc(Cc3ccccc3)o2)CC1 | -0.999
23 | Cc1ccnc(Nc2nc(-c3sc(NC(=O)c4ccccc4)nc3C)cs2)c1 | -9.24
24 | CNS(=O)(=O)c1ccc(OC)c(OC)c1 | 2.57
25 | CCOC(=O)c1cc(-c2ccc(-c3ccccc3)cc2)nc2ccccc12 | -4.91

Row | Compound | % Inhibition @ 10 uM [%]
26 | CCCCC1COC(c2cccn2Cc2ccc(F)cc2)=N1 (stereo not shown) | 0.163
27 | COCc1[nH]nc2c1C(c1ccccc1OC)C(C#N)=C(N)O2 (stereo not shown) | 4.86
28 | Cc1ccc(OCC(=O)Nc2cccc(C#N)c2)c(Br)c1 | -4.14
29 | CC1CCN(C(=O)C2CCN(C(=O)c3cc4sccc4n3Cc3ccc(F)cc3)CC2)CC1 | 3.4
30 | CC(C)(C)C(=O)/C=C(\NCc1ccccc1)C(=O)NCc1ccccc1 | 2.18
31 | COc1ccc2c(c1)nc(SCc1ccc(Cl)cc1)n2C | 6.47
32 | Nc1no[n+]([O-])c1C(=O)NCCc1c[nH]c2ccccc12 | 1.76
33 | Cc1coc2c1c(C)cc1oc(=O)c(CC(=O)O)c(C)c12 | -1.15
34 | Cc1[nH]c2ccc(C(=O)NCCCN3CCC(Cc4ccccc4)CC3)cc2c1C | 1.95
35 | O=C(O)c1c(CNC2CCCc3ccccc32)c2ccccc2n1Cc1cccc(Cl)c1 (stereo not shown) | 3.54
36 | CCOc1cc(C)nc(-c2ccccc2O)n1 | -3.26
37 | CCc1ccc(CNC(=O)Cn2ncc3c4cc(C)ccc4nc-3c2O)cc1 | 0.708
38 | CC(C)C[C@H](NC(=O)c1ccc(-c2ccccc2F)nc1)C(=O)NCC#N | -0.207
39 | CCOc1ccc(NC(=O)CC2S/C(=N\c3ccc(Br)cc3)N(C)C2=O)cc1 (stereo not shown) | -0.545
40 | CCCCN(C)C(=O)C1c2ccccc2C(=O)N2CCc3ccccc3C12 (stereo not shown) | -5.09
41 | O=S(=O)(c1cccc(S(=O)(=O)N2CCOCC2)c1)c1cccc(S(=O)(=O)N2CCOCC2)c1 | 9.22
42 | Cc1ccc(C2=NC(=O)/C(=C/c3ccsc3)S2)cc1 | 0.993
43 | O=C1c2cccnc2C(=O)N1Cc1ccc(S(=O)(=O)N2CC=C(c3ccccc3)CC2)s1 | -2.19
44 | COc1ccc(-c2cc3c(=O)n(CC(=O)N4CCC5(CC4)OCCO5)ncn3n2)cc1 | -6.58
45 | COc1ccc(C(=O)N2CC(=O)N(CCc3ccccc3)C(=O)C2)cc1OC | 2.8
46 | Cc1ccc(C(=O)Nc2nc3ccc(Cl)cc3s2)o1 | -5.13
47 | CCOc1ccc2nc(NC(=O)c3nc(SCC)ncc3Cl)sc2c1 | 2.19
48 | CC(Cc1c[nH]c2ccccc12)NC(=O)NC(=O)c1ccc(Cl)cc1 (stereo not shown) | -1.76
49 | COc1cc(/C=C2\SC(=N)N(c3ccc(Br)cc3)C2=O)ccc1OC(C)C(=O)O (stereo not shown) | 2.95
50 | Cc1cc(C)c(S(=O)(=O)Nc2ccccc2-c2ccccc2)c(C)c1 | 5.06

Row | Compound | % Inhibition @ 10 uM [%]
51 | COc1ccc(CN2CCN(Cc3ccc(SC)cc3)CC2)cc1OC | 6.29
52 | CCC(C)c1ccc(NS(=O)(=O)c2ccc(Cl)cc2)cc1 (stereo not shown) | -4.91
53 | CC1CCCCN1Cc1coc2c(Cl)cc(Cl)cc2c1=O (stereo not shown) | -1.64
54 | CN1C(=O)CCC1(O)c1ccccc1 (stereo not shown) | -7.93
55 | C=CCn1c(SCC(=O)N2CCOCC2)nc2sc(-c3ccccc3)cc2c1=O | -4.48
56 | O=C(NCc1cccnc1)c1ccc2nc(-c3ccccc3)c(-c3ccccc3)nc2c1 | -2.9
57 | CN1CCN(c2ncnc3sc4c(c23)CCCC4)CC1 | -1.29
58 | CN1CCN(C(=O)c2c(NC(=O)c3ccccc3)sc3c2CCCC3)CC1 | 14.3
59 | CCN1CCN(S(=O)(=O)/C=C/c2ccccc2)CC1 | 3.96
60 | COc1ccccc1N1C(=O)C2C(c3ccccc3)C=CC(c3ccccc3)C2C1=O (stereo not shown) | 0.716
61 | Cn1c2c(c(=O)n(C)c1=O)C(c1ccsc1)C1=C(O)c3ccccc3C1=N2 (stereo not shown) | 5.65
62 | Cc1c(C(=O)NCc2ccc(F)cc2)oc2ccc(S(=O)(=O)N3CCCCCC3)cc12 | 5.5
63 | O=C(CSc1nnc2sc3ccccc3n12)N1N=CCC1c1ccccc1 (stereo not shown) | 0.564
64 | CCC(C(=O)Nc1nc2nc(C)cc(O)n2n1)c1ccccc1 (stereo not shown) | 0.401
65 | NS(=O)(=O)c1ccc2c(O)cc(S(N)(=O)=O)cc2c1 | -6.21
66 | Cc1ccc(NCN2C(=O)C3CC=CCC3C2=O)cc1 (stereo not shown) | 14.2
67 | CC(C)NC(C)C(O)c1ccc2ccccc2c1 (stereo not shown) | -0.505
68 | O=c1c2c([nH]c(=S)n1C1CCCC1)-c1ccccc1CC21CCCCC1 | 2.81
69 | CCCN(CCC)CCCn1cnc2c3cc(F)ccc3nc-2c1O | -1.74
70 | c1ccc2c(CN3CCSCC3)ccnc2c1 | 0.472
71 | CCNC(=O)c1cc(-c2cccc(C)c2)nc2ccccc12 | 0.528
72 | COc1cc(C=C2C(=O)N(C)C(=O)N(C)C2=O)ccc1Oc1c(F)c(F)c(F)c(F)c1F | 2.8
73 | O=C(CN1C(=O)S/C(=C/c2cccc(O)c2)C1=O)Nc1ccccc1 | 2.22
74 | COc1ccc(OCCCN2CCC(Cc3ccccc3)CC2)cc1 | -1.82
75 | CCN(c1ccccc1)S(=O)(=O)c1ccc(F)cc1 | 3.48

Row | Compound | % Inhibition @ 10 uM [%]
76 | CN1C(=O)CN=C(c2ccc(Cl)cc2)c2cc(Cl)ccc21 | 0.843
77 | COc1ccc(C2NC(=O)c3c(sc4c3CCCC4)N2)cc1Cl (stereo not shown) | 2.86
78 | Cc1cc(NC(=O)CN2CCN(C(=O)c3ccco3)CC2)nc2c1c(=O)oc1ccccc12 | -3.87
79 | CCN(CC)c1c(S(=O)(=O)c2ccccc2)cnc2ccc(F)cc12 | -6.07
80 | CCOC(=O)c1cc(-c2ccc(C)cc2)n(CC(=O)NCC2CCCO2)c1C (stereo not shown) | 4.88
81 | CCC(C)c1ccc(NS(=O)(=O)c2cc(Cl)ccc2Cl)cc1 (stereo not shown) | 3
82 | Cc1nc2nc(CNC(=O)OC(C)(C)C)nn2c(C)c1CCC(=O)NCc1ccccc1 | 1.22
83 | Cc1cccc(NC(=O)COc2ccc(C(C)(C)C)cc2)n1 | 4.66
84 | CCCN(CCC)C(=O)Cn1ncc2c3ccccc3n(C)c2c1=O | -0.23
85 | CCOC(=O)N1CCN(C/C(C)=C/c2ccccc2)CC1 | -1.78
86 | COc1ccc(C2C(C#N)=C(N)OC3=C2C(=O)CCC3)cc1COc1ccc(C)cc1 (stereo not shown) | 3.19
87 | O=C(O)C1CCCCC1C(=O)N1CCN(c2ccc(F)cc2)CC1 (stereo not shown) | -2.17
88 | Cc1cc(C)cc(OCC(O)CN2CCN(c3ccccc3F)CC2)c1 (stereo not shown) | -5.35
89 | CS(=O)(=O)NCc1csc(-c2ccccc2)n1 | -0.72
90 | CCCCNc1cc(C)oc(=O)c1C(C)=O | 0.708
91 | COc1ccc(N2C(=O)CC(NC3CCCCCCC3)C2=O)cc1 (stereo not shown) | 31.4
92 | CCOC(=O)N1CCN(CC(O)COc2ccccc2C(C)CC)CC1 (stereo not shown) | 3.66
93 | C[C@@H](C[C@H](NC(=O)c1ccc(-c2ccccc2Cl)cc1)C(=O)NCC#N)c1ccccc1 | -3.14
94 | Cc1cccc(-n2c(CNC(=O)COc3ccccc3)nnc2SCC(=O)Nc2nccs2)c1 | -5.17
95 | CCOc1cc(C(=O)NCCSc2c[nH]c3ccccc23)cc(OCC)c1OCC | -0.228
96 | O=C(CCc1ccc(S(=O)(=O)NCc2ccccc2)cc1)N1CCN(c2ccccc2F)CC1 | 0.389
97 | O=C(NCCCN1CCCC1=O)C1CCN(S(=O)(=O)N2CCOCC2)CC1 | 0.718
98 | CN(C)CCNC1CCCCCCC1 | 3.48
99 | COc1cc(S(=O)(=O)N2CCN=C2c2ccccc2)c(OC)cc1Br | 0.245
100 | CCc1ccc(C2=NN(CCC(=O)NCCCOC(C)C)C(=O)CC2)cc1 | -0.971

— article PMC6919601, “Identification of Plasmodium dipeptidyl aminopeptidase allosteric inhibitors by high throughput screening” (PLoS ONE, 2019)
